In PubChem BioAssay AID624417 (National Center for Advancing Translational Sciences (NCATS), 2012):
Out of some 410,000 compounds screened, about 6,400 (1.6%) were called active. The shares of active, inactive and inconclusive entries below differ from those in the screen. Calls come from the whole dose curve; as a rule, active = well fitted inhibition curve with a large enough effect; inconclusive = small, poorly fitted or top-dose-only effect; inactive = no such curve, though single readings can be large or run the other way. No potency is given beside an inconclusive call; the fits are too rough.
% is set by controls: 0 for no effect and ±100 for the full control effect; potency is the fitted concentration of half-maximal effect; tags give direction and shape of the fitted curve.
Note: nearly all actives have a fitted effect of over 55% in size.

These compounds were tested against Glucagon-like peptide 1 receptor (Homo sapiens) (UniProt P43220) (assay: qHTS of GLP-1 Receptor Inverse Agonists (Inhibition Mode)). Details: HEK293 GLP-1R CRE-luciferase, luminescence, 24 h, GLP-1R form is constitutively active; activity change, negative = inhibition: at 38.3 µM (top of the series) unless noted.
Sequence of UniProt P43220 (P43220 whole entry, looked up): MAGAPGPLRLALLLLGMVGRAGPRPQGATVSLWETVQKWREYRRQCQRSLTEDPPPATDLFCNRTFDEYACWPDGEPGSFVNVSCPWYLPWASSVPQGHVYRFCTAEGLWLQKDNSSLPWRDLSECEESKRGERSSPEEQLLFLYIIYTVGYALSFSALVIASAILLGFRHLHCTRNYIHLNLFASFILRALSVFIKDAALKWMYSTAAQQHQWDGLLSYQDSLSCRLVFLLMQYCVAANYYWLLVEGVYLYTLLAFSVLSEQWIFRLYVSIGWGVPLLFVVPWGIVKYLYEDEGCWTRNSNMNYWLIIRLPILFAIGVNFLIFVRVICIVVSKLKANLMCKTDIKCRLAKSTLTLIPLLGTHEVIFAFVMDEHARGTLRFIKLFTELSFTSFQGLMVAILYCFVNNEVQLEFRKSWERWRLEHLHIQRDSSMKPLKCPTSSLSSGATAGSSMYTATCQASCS
Outline: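 GLP-1R inverse agonism mode: basal reporter luminescence in engineered HEK293 cells measured after one day of compound exposure at 37 deg C, with a 12 min room-temperature detection step.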
With `Cc1c2c(cc3c1[nH]c1ccccc13)C=NCC2` the Potency was inconclusive [inhibitor, partial curve, poor fit]. In the case of `CCOc1nc(-c2ccccc2)ccc1-c1noc(-c2ccco2)n1`, the Potency is reported as inconclusive [inhibitor, single point]. `O=C(CCS(=O)(=O)c1cc(Br)cc2c1N(C(=O)C1CC1)CC2)NCc1ccc(Cl)cc1` was tested, and the Potency was inconclusive [inhibitor, partial curve, poor fit]. In the case of `CCOP(=O)(OCC)C(Nc1ccccc1)c1ccc2c(c1)OCO2` (configuration not stated), the Potency is reported as inconclusive [inhibitor, partial curve, poor fit]. `Cc1cc2c(N=O)c(NO)ccc2[nH]1` was tested, and the activity change, negative = inhibition was inconclusive: -52.4% [inhibitor]. For `CCn1c(=O)sc2cc(NS(=O)(=O)c3ccc(F)c(C)c3)ccc21`, the Potency was inconclusive [inhibitor, single point]. For `Cc1ccc(CSc2cn(CC(=O)N3CCCC3)c3ccccc23)cc1`, the Potency was inconclusive [inhibitor, single point]. For `CCOc1ccc(Nc2oc(-c3ccc(Cl)cc3)nc2C#N)cc1`, the Potency was inconclusive [inhibitor, partial curve]. With `COc1cc(CNC(=O)Nc2nc(C(N)CCc3ccccc3)cs2)cc(OC)c1OC` (configuration not stated) the Potency was inconclusive [inhibitor, single point]. For `COc1cccc(-c2ccc(NC(=O)C3CCCN(CCCn4cccn4)C3)cc2)c1` (configuration not stated), the Potency was inconclusive [inhibitor, partial curve, poor fit]. In the case of `O=C(c1cc(-c2ccc(Cl)cc2)n(-c2ccc(Cl)cc2)n1)N1CCOCC1`, the Potency is reported as inconclusive [inhibitor, single point]. `CCOc1cccc(CN2CCC(Oc3ccc(C(=O)NCc4ccccn4)cc3)CC2)c1` was tested, and the Potency was inconclusive [inhibitor, partial curve, poor fit]. For `CCCCOc1ccc(C(=O)NCC(=O)NCc2ccccn2)cc1`, the Potency was inconclusive [inhibitor, partial curve]. In the case of `COc1cc(OC)cc(C(=O)Nc2nnc(NC(=S)Nc3ccccc3)s2)c1`, the “activity change, negative = inhibition” value is reported as inactive: 6.3%. With `COC(=O)C1=C(C)N(Cc2ccccc2)C(=O)N[C@H]1c1ccccc1` the Potency was inconclusive [inhibitor, partial curve, poor fit]. In the case of `CCOc1ccc(NC(=S)NN2C(C)CCCC2C)cc1` (configuration not stated), the Potency is reported as inconclusive [inhibitor, partial curve, poor fit]. In the case of `O=C(Nc1ccc(F)cc1)NC1(C(=O)NCc2ccco2)CCCCC1`, the Potency is reported as inconclusive [inhibitor, partial curve, poor fit]. For `CCC1(C)Cc2ccccc2-c2nc(NCCCO)n(C)c(=O)c21` (configuration not stated), the Potency was inconclusive [inhibitor, partial curve, poor fit]. In the case of `COc1ccc(-c2ccc(CN3C(CC(C)C)C(=O)N(Cc4cn(CC5CCCCC5)nn4)CCS3(=O)=O)cc2)cn1` (configuration not stated), the Potency is reported as inconclusive [inhibitor, partial curve, poor fit]. For `CCCCCc1c(-c2ccccc2)ncn1CCc1ccccc1OC`, the Potency was inconclusive [inhibitor, single point]. In the case of `O=C(O)/C=C/C(=O)c1ccc2c(c1)NC(=O)CO2`, the “activity change, negative = inhibition” value is reported as inactive: 10.3%. With `Cc1cc(C)cc(C(=O)OCC(=O)NCc2cccs2)c1` the Potency was inconclusive [inhibitor, single point]. In the case of `CCOC(=O)c1c(-c2ccc(Br)cc2)csc1NC(=O)c1ccc(F)cc1`, the “activity change, negative = inhibition” value is reported as inactive: -1.41%. For `CCc1ccc(CNC(=O)c2ccc(NC(=O)N3CC(C)Sc4ccccc43)cc2)cc1` (configuration not stated), the Potency was inconclusive [inhibitor, partial curve]. `CCOC(=O)[C@H]1[C@H]2COc3ccc(C)cc3[C@@H]2N2C(=O)c3cc(Cl)ccc3NC(=O)[C@@]12C` was tested, and the Potency was inconclusive [inhibitor, partial curve, poor fit]. In the case of `COc1ccc(CC(=O)NCCC2=CCCCC2)cc1`, the Potency is reported as inconclusive [inhibitor, single point]. With `CC(C)(C)c1ccc(C(=O)NCC(c2cccs2)S(=O)(=O)c2ccccc2)cc1` (configuration not stated) the Potency was active: 2.82 µM. For `CCC(C)N1C(=O)S/C(=C/c2ccc(Sc3nc4ccccc4[nH]3)o2)C1=O` (configuration not stated), the Potency was inconclusive [inhibitor, single point]. With `CCOC(=O)CC(=O)CSc1ccc2nnc(-c3ccc(F)cc3)n2n1` the Potency was inconclusive [inhibitor, single point]. `CCc1[nH]nc(C(=O)N2CCCC(CO)(Cc3ccc(F)cc3F)C2)c1C` (configuration not stated) was tested, and the Potency was inconclusive [inhibitor, partial curve, poor fit]. With `Cc1cc(C)n(CCOc2ccc(Br)cc2)n1` the Potency was inconclusive [inhibitor, single point]. `Cc1cccc(CSc2nnc([C@@H]3CCCN3C(=O)OC(C)(C)C)o2)c1` was tested, and the Potency was inconclusive [inhibitor, single point]. For `O=C(C1CC(=O)N(c2ccc3c(c2)OCCO3)C1)N1CCN(c2cccc(C(F)(F)F)c2)CC1` (configuration not stated), the Potency was inconclusive [inhibitor, single point]. With `COc1cccc(CNCC(O)COc2ccc(C(=O)c3ccccc3)cc2)c1` (configuration not stated) the Potency was inconclusive [inhibitor, partial curve, poor fit]. With `COc1ccc(CCc2ccc3cc(OC)ccc3n2)cc1` the Potency was inconclusive [inhibitor, partial curve, poor fit]. `CC12CCC(=O)N1C(C(=O)Nc1cc(C(F)(F)F)ccc1N1CCOCC1)CS2` (configuration not stated) was tested, and the Potency was inconclusive [inhibitor, single point]. `Cc1ccc2ncc(C(=O)Nc3ccc(F)cc3F)c(=O)n2c1` was tested, and the “activity change, negative = inhibition” value was inactive: 16.3%. `O=C(Cc1c(F)cccc1Cl)NCCc1c[nH]c2ccccc12` was tested, and the Potency was inconclusive [inhibitor, single point]. For `Cc1ccc(-n2c(SCc3cccc(F)c3)nc3[nH]ncc3c2=O)cc1C`, the Potency was inconclusive [inhibitor, partial curve, poor fit]. `Cc1ccc2c(c1)-c1cc(C)nn1C(c1cc(Br)ccc1O)N2` (configuration not stated) was tested, and the “activity change, negative = inhibition” value was inactive: -28.7%. For `Cc1ccc(F)cc1NC(=O)CCNC(=O)c1ccc([N+](=O)[O-])cc1`, the “activity change, negative = inhibition” value was inactive: 13.6%. `CC(=NNC(=S)N1CCCCCC1)c1cccc2cccnc12` was tested, and the Potency was inconclusive [inhibitor, full curve, poor fit]. With `COc1ccc(NC(=O)C(C)n2nc(-c3ccc(C)c(C)c3)ccc2=O)cc1OC` (configuration not stated) the “activity change, negative = inhibition” value was inactive: -2.54%. With `CCc1nnc(SCc2cc(C)ccc2C)c2cc3sc(C)cc3n12` the Potency was inconclusive [inhibitor, full curve, poor fit]. For `O=c1c2ccc(Cl)cc2nc(-c2ccc([N+](=O)[O-])cc2)n1O`, the Potency was inconclusive [inhibitor, full curve, poor fit]. For `COc1cccc(NC(=O)CSC2=Nc3ccccc3C3=NC(CC(=O)NC4CCCCC4)C(=O)N23)c1` (configuration not stated), the Potency was inconclusive [inhibitor, partial curve]. In the case of `CN(C(=O)c1cccc(NC(=O)C2CCN(C(=O)OC(C)(C)C)CC2)c1)C1CCCCC1`, the Potency is reported as inconclusive [inhibitor, single point]. In the case of `O=C1CC[C@@H](CN(Cc2ccccc2)Cc2cn[nH]c2-c2cc3ccccc3o2)N1`, the Potency is reported as inconclusive [inhibitor, single point]. For `O=C(/C=C/c1ccc(Cl)cc1)N(Cc1ccccc1)C1CCS(=O)(=O)C1` (configuration not stated), the “activity change, negative = inhibition” value was inactive: -21.1%. In the case of `COc1cccc(Cn2cc(/C=N/NC(=O)c3cc(O)cc(O)c3)c3ccccc32)c1`, the Potency is reported as inconclusive [inhibitor, partial curve, poor fit]. For `CCOC(=O)c1c(C)oc2ccc(N(C(=O)Oc3ccccc3)S(=O)(=O)c3ccc(CC)cc3)cc12`, the Potency was inconclusive [inhibitor, single point]. For `O=C(Oc1ccc(N(Cc2cccs2)C2=NS(=O)(=O)c3ccccc32)cc1)c1ccco1`, the Potency was inconclusive [inhibitor, partial curve, poor fit]. In the case of `Cc1cccc(OC(=O)CSc2nnc(CNC(=O)c3ccccc3)o2)c1C`, the “activity change, negative = inhibition” value is reported as inactive: -8.34%. For `O=C(Nc1ccc(F)cc1)c1oc2ccccc2c1NC(=O)C12CC3CC(CC(C3)C1)C2`, the “activity change, negative = inhibition” value was inactive: -1.63%. For `CCc1ccccc1NC(=O)CN(Cc1ccccc1)S(=O)(=O)c1ccc(Br)cc1`, the Potency was inconclusive [inhibitor, single point]. For `O=C(Nc1cccc(S(=O)(=O)N2CCCC2)c1)c1ccc2ccccc2n1`, the Potency was inconclusive [inhibitor, single point]. In the case of `CN(C(=O)c1cccc(NC(=O)c2ccccc2)c1)C1CCCCC1`, the Potency is reported as inconclusive [inhibitor, partial curve]. In the case of `CCCn1c(NCc2cc(C)ccc2O)nc2ccccc21`, the Potency is reported as inconclusive [inhibitor, single point]. `CC(CC(=O)N1CCc2ccccc21)c1ccccc1` (configuration not stated) was tested, and the Potency was inconclusive [inhibitor, partial curve, poor fit]. In the case of `O=C(Cc1ccccc1)N(Cc1cccnc1)c1nc2c(F)cc(F)cc2s1`, the Potency is reported as inconclusive [inhibitor, single point]. `COc1ccc(-c2cc(C)no2)cc1S(=O)(=O)N1CCOc2ccccc21` was tested, and the Potency was “inactive”. `N#Cc1c(-c2ccccc2)c(-c2ccccc2)nn(CC(=O)NNC(=O)Nc2ccc(Cl)c(Cl)c2)c1=O` was tested, and the Potency was inconclusive [inhibitor, partial curve, poor fit].
